# In the supplement of paper PMC11417369:
# Some of the results follow.
# Test system: PfHDP1 homeodomain (GST-tagged)
# Test: gcPBM binding intensity (ln(normalized median fluorescence intensity)); higher = stronger DNA binding
# Outline: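 GST-tagged P. falciparum DNA-binding domains, expressed in E. coli (about 25 μg on average), were applied for 1 h to an Agilent 4 × 180k array of primer-extended double-stranded 36-bp intergenic genomic probes plus negative controls. The binding buffer was 1× PBS with 1% milk, 0.2 mg/ml BSA, 0.5% salmon testes DNA and 0.03% Triton X-100. Bound protein was detected with Alexa488 anti-GST antibody and scanned at 488 nm. Binding intensity is the highest Masliner-normalised natural-log median intensity across replicate spots of either probe orientation.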
row,Sequence,gcPBM binding intensity (ln)
1,GATATAAGGGTATGAAGTACATAAATATTTTATGCT [XGTACX_site1886],6.34
2,TATGCACGCGAACACACACACACAACTAAAAAATAA [CACACA_site7251],8.9
3,ATACATATATAAATATGTACACACATATGTATGATC [XGTACX_site8219],6.46
4,AAAAAAAAAAAAAAAACACACATACACCCAGACACA [CACACA_site5807],6.82
5,GGAAACCCTCCCAAATGTACTTTTATAAAAAAATAC [XGTACX_site5502],6.98
6,ATATAAGTACATATAACACACATATATTATAAGTAT [CACACA_site2647],6.52
7,TTTGCCATAAAACACACACACATGTAAACCCCCTTT [CACACA_site1646],7.33
8,TATACTCAGAAACACACACACACACCCAAAAAAAAA [CACACA_site4434],6.8
9,TACGCGAAATGAATATGTACATATATGAGGGCATAT [XGTACX_site4293],6.92
10,TTTATATAAGGACATGCATGCTATTATTAAATATAT [TGCATGCA_site1011],6.47
11,TAATATATAAATATATGTACATAATAAATAGGATAT [XGTACX_site3661],7.06
12,ACTTCATAGGTTACCTGTACATATAAGGAGTTATCA [XGTACX_site4110],6.6
13,ATGTAAGTATAAAATGTGCGCATTGGGAATGAGGAC,8.29
14,ACTATTTAAAAATATGGTACACGAAATTCAAGAGAA [XGTACX_site5903],6.9
15,ATGAATTAACCTAATCGTACAATAAATATTATTATA [XGTACX_site596],6.11
16,ATATATATATATGTATGTATATATATATGTTTGATT [XGTACX_negctrl_site62],8.94
17,TTGTTTATGTGAGAAGTGCATTTTTTCGTTCATGTA,7.93
18,AAGTTTTATATTTATTAAATTTTTTTTTTTCCTTTT [XGTACX_negctrl_site184],5.85
19,ATATGTTTAAAAATATGTACGTATTATATATTCTAT [XGTACX_site1358],6.38
20,TTTTTTATTTTGTTGAAGCAATGAAAATGAATGAAA [TGCATGCA_negctrl_site495],6.6
21,TCTTTTTTTTTTTTTTTTTTTTTTTTTTTTTTTTTT [GTGCAC_negctrl_site18],7.39
22,ATAAAACCAACATAGAGTACAGATCGACTATGTTTC [XGTACX_site4329],6.25
23,TTTTCTTTTTAAATTACACACACATATATATATGTA [CACACA_site9172],6.99

row,Sequence,gcPBM binding intensity (ln)
1,ATTTTAATGACATATACACACAAAGGTTCATAACAA [CACACA_site5664],6.51
2,TGTAGATATTATATATGTACGCATATGAAATATATA [XGTACX_site1586],6.35
3,GTAATATCAATATAAAGTACACACTATAGTATGTAT [XGTACX_site4714],6.4
4,TAATTATATAAATATTGTACAAAAAAAATATATATA [XGTACX_site3137],6.8
5,AAAATATATAATATAACACACATATATTCTATATGG [CACACA_site4044],6.37
6,TTCAAAATATATATTTGTACATATAGGATCTTTTTC [XGTACX_site4500],6.36
7,ATATATACATATAATTGTACTTGTGTTGTTTTTCTT [XGTACX_site1870],6.69
8,TTAACGCTTATTTTTTGTACTTATTTTATTTTAAAT [XGTACX_site3977],6.89
9,ACTCTATAATAAAATACACACAAGACTATCTAATAT [CACACA_site1796],6.68
10,CAACATTAATATAAAGCACACATATATATAATATAT [CACACA_site8064],6.39
11,AATATAAACCCAAACACACACATATATATATATATA [CACACA_site268],9.39
12,TTTTTTTTTTTGAGGAGGACACAAAAATATGCTACC [XGTACX_site756],6.23
13,TTTTATTTATAATATATACACACTAACATTATTTAT [CACACA_site1284],6.34
14,GAATATTTATCATGGGGTACCTTAAAAAAGGGAAAA [XGTACX_site298],6.04
15,ATATCTTAAATTATTTGTACATATATATATATATAT [XGTACX_site8034],9.46
16,AATATAAAAATATAAAAACACACGTAAAAAAATTTA [CACACA_site3399],6.65
17,TATATTCTTTTAAACAGTACACACACACATATATAT [XGTACX_site1701],7.27
18,AAAAAAATTAAAAATAAAGAAAAAAAAAAAAAAAAA [GTGCAC_negctrl_site401],6.07
19,TTAATACACCATAAAAGTACATAATATGATATTTAA [XGTACX_site8561],6.29
20,ATATGTTTGATTTTTTTTTTTTTTTTTTTTATGTGT [CACACA_negctrl_site1001],6.37
21,AAAAAAAAAATTAAAAGTACAGAAAATAAATAAATA [XGTACX_site7470],6.08
22,AAGAAAATAAATAATACACACAAGGATTTGTAAATA [CACACA_site690],6.36
23,CTTTTTTTTTAAAAATGTACACATTTTTGAAAATAC [XGTACX_site3127],6.16

row,Sequence,gcPBM binding intensity (ln)
1,TTTTTCTTTTTTTTTTCCTTTATCACATAAGAAAAA [CACACA_negctrl_site192],6.33
2,AAGATATGAGGGAATACACACATATATATATATATA [CACACA_site1581],9.38
3,AAAATGAAGAAGTGCACACATATATATATTTATATA [CACACA_site507],9.11
4,TTTTCCCTTACAGAAAAAAAAAAATTCCTAACCCCG [CACACA_negctrl_site650],6.63
5,TTATATATTTATAATCGTACAATAATTAACGTAAAA [XGTACX_site3206],6.54
6,ATATATTTTAGGAGAGTGCATTTAATATTATTTAAT [GTGCAC_site9444],8.17
7,CATATAATAAATAATACACACATATTGTAAATATAT [CACACA_site5734],6.46
8,TAAAATAAAATAAAATGTACTTTCCTTTTGATAATA [XGTACX_site6288],5.96
9,AATTGAGTATCGTGAGTGCAAAACGTGGTTCAAAGA,10.1
10,GTAATGAACAAACACAAAAAAAAAAAAAAAATAATA [TGCATGCA_negctrl_site344],6.1
11,GACATATTATTCATGTGTACATATTATATGTATATA [XGTACX_site3442],6.51
12,AAAAAAGAAGACATCTAAGTAATAGTAACAATGTAT [CACACA_negctrl_site1660],6.43
13,TATAAATATACACCCACACACATATATAAATAAATA [CACACA_site7717],7.12
14,AAGAATTTAGAAGGCATGCACTTAAACATGCATATA,7.52
15,TATATGGGATATATGTGTACATATAAAATATGTATC [XGTACX_site3365],6.37
16,TTTTTTTTTTTTTTTACACACATTTGAATAACTTTA [CACACA_site6810],6.62
17,CTTAATATGAATAAAACACACATATATAATTTGTAA [CACACA_site5120],6.18
18,AAAAGAATTAAAAAATGTACATATAATATATATATA [XGTACX_site6721],8.21
19,ATAACTATATACATCTGTACATAATACATAGATAAA [XGTACX_site2795],6.52
20,ATTTGTATATAATATATATAATTTTTTTTTTTTGTT [XGTACX_negctrl_site425],6.16
21,ATATCTTCACTTATATGTACTTACATTTTTTTTTTT [XGTACX_site8696],6.74
22,ATTTGAAAAAATACTACACACCATATTGTTAATTTT [CACACA_site3829],6.3
23,AAGATTCATATAAAAAGTACAAAAAGAAAAAAATAA [XGTACX_site6033],6.48

row,Sequence,gcPBM binding intensity (ln)
1,TATACACATAGACACACACACATACACGCACATACA [CACACA_site6908],7.39
2,TCTAAAAAAATTATATCACACATTATAAAGCATATT [CACACA_site4885],6.25
3,TAATAAGTATCAAAATGTACATGACAAAAATAATTT [XGTACX_site8961],6.75
4,ATAATTTTATATAAATGTACATACATTTTTATTATA [XGTACX_site7368],6.36
5,ATAATATATGCAAAAACATGCACATAATATGTAAAA [TGCATGCA_site742],9.97
6,ATATATATGTATATATGTACATATATGTATATATAT [XGTACX_site4772],6.94
7,ATTAAATCATATGAATGTACGGATATATATATTTCC [XGTACX_site8650],6.6
8,TGATAAATTTTCACATGTACATATATAGAATAACCT [XGTACX_site2860],6.98
9,CATAATATATATTGAGCATGCTACTATTGTTAGAAA [TGCATGCA_site740],7.65
10,AAAAAAAAAAACTACACACATACAAATATTTATATA [CACACA_site2574],6.45
11,ACATATAAGATATATACACACATATAAATACATTAA [CACACA_site7763],6.46
12,CAAATAAAAAAAGTAGCACACATGAATAAAATATAT [CACACA_site3130],7.02
13,ATACATACATATGTATGTACGTATGTATGTATGTAT [XGTACX_site3853],6.39
14,AGAATAGTGGAAAACACACACGTTTGAGATATGGAC [CACACA_site4782],6.99
15,TTATAAAAAGAACAATTAAAAAAAAATAAAATAAAA [XGTACX_negctrl_site398],6.48
16,TTTTTATGTTCTATATATATATATATATATATATAT [GTGCAC_negctrl_site306],9.4
17,GCACGTGTGATTAGATGTACATAACATGTATATGTC [XGTACX_site4632],6.37
18,CACCCACCCACATACACACACATACACATATATATA [CACACA_site1722],7.49
19,ATATCTCAACATATCACACATATATATATATAATAT [CACACA_site5018],6.97
20,AATAAATATAAATAAATAAATATATATATATATTTG [CACACA_negctrl_site1486],6.25
